# Laboratory results from PubChem BioAssay AID504339 (National Center for Advancing Translational Sciences (NCATS), 2011).
# Where “and” joins values, the source holds several entries; their conditions need not be identical. Identical values can stand only once. Out of some 390,000 compounds screened, about 17,000 (4.4%) were called active. Inconclusive means that the source gave no clear call. Such entries were picked first, then a sample of the others. The call rests on the fitted dose curve; in most records, active means well fitted inhibition curve with a large enough effect; inconclusive means small, poorly fitted or top-dose-only effect; inactive means no such curve, though single readings can be large or run the other way. A potency beside an inconclusive call is a rough fit, not a confirmed value. Some structures have more than one record in an assay (separate samples or runs), and their calls can disagree.
# Biological target: Lysine-specific demethylase 4A (Homo sapiens) (UniProt O75164)
# Experiment: qHTS Assay for Inhibitors of JMJD2A-Tudor Domain; further: nearly all actives have a fitted effect of over 50% in size
# Details: AlphaScreen JMJD2A-Tudor / H3K4me3 peptide binding; activity change, negative = inhibition: at 114 µM (top of the series)
# On the % scale 0 is the no-effect control and ±100 the full control effect; potency means the concentration at half of the fitted maximal effect; tags describe the fitted curve by direction and shape.
# Sequence of UniProt O75164 (O75164 whole entry, looked up, the tested form may be a part): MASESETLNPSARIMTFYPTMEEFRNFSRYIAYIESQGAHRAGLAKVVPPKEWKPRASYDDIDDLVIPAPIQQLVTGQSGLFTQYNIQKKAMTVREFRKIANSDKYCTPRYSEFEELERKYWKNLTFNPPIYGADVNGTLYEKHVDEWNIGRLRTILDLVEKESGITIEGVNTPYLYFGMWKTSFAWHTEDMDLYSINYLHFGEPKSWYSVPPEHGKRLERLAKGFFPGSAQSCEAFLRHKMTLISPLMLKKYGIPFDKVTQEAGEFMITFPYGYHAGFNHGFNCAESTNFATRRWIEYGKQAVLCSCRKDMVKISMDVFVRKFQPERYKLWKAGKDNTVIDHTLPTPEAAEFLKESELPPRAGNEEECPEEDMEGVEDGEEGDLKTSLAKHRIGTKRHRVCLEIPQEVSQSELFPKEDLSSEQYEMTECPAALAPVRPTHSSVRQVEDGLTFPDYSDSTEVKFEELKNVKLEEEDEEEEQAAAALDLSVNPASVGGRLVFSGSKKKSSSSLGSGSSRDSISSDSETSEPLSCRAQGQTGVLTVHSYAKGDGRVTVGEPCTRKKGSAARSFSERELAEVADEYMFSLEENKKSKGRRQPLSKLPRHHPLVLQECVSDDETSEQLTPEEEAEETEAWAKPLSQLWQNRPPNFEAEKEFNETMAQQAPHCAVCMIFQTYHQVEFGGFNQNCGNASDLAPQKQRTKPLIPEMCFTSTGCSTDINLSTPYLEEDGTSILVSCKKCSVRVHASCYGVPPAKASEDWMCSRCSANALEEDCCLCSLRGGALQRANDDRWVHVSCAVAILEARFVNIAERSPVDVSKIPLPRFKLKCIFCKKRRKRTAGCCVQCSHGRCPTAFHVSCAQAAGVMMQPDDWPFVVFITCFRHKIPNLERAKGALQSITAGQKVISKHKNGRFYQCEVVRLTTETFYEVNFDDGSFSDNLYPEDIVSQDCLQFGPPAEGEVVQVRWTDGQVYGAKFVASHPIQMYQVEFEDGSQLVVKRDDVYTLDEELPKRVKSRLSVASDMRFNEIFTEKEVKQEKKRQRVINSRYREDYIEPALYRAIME
Compound,Potency,"activity change, negative = inhibition"
COc1ccc(CC(=O)Nc2c(C(=O)N3CCN(c4ccccc4OC)CC3)oc3ccccc23)cc1OC,"inconclusive: 56.2 µM [inhibitor, partial curve]",
CC(OC(=O)c1snc(C(=O)NC2CCCCC2)c1N)C(=O)NC(C)(C)C (configuration not stated),"inconclusive: 100 µM [inhibitor, single point]",
O=S1(=O)CCC(N=Cc2ccc(-c3ccc(Cl)cc3)o2)C1 (configuration not stated),inactive,
O=S(=O)(/C=C/c1ccccc1)N1CCOCC1,inactive,
O=C(Nc1nccs1)[C@@H]1CC=C[C@@H]2CCN(Cc3ccccc3)C(=O)[C@@H]21,"inconclusive: 25.1 µM [inhibitor, full curve, poor fit]",
COc1ccccc1N1CCN(CCN2C(=O)CC(=C3c4ccccc4-c4ccccc43)C2=O)CC1,active: 31.6 µM,
Cc1nc2cccnc2n1-c1cccc(C(=O)N2CCN(c3ccc(Cl)cc3)CC2)c1,"inconclusive: 4.47 µM [inhibitor, single point]",
Cc1noc(C)c1COC(=O)CCOc1ccccc1,inactive,
COc1cc(CN2CCN(c3cccc(C)c3C)CC2)cc(Br)c1O,active: 2 µM,
CCOc1ccc(S(=O)(=O)NCCC(=O)N2CCC(Cc3ccccc3)CC2)cc1,inactive,
Oc1ccc(Cl)cc1C1=Nc2ccccc2N=C(c2ccco2)C1,inactive,
CCSc1nnc2n(-c3cccc(C)c3)c(=O)c3c4c(sc3n12)CCCC4,inactive,
COc1ccc(C)c2sc(N(CCN(C)C)C(=O)c3ccc4ccccc4c3)nc12,"inconclusive: 28.2 µM [inhibitor, partial curve]",
CCOc1ccccc1N1CCN(Cc2cc3c(cc2[N+](=O)[O-])OCO3)CC1,"inconclusive: 50.1 µM [inhibitor, partial curve]",
CC[n+]1c(/C=C/c2ccc(N(C)C)cc2)ccc2ccccc21,"inconclusive: 70.8 µM [inhibitor, single point]",
COc1ccc(CCNC(=O)CN2C(=O)NC(CCSC)C2=O)cc1 (configuration not stated),inactive,
COc1cccc(C2c3c(ncn(-c4ccc(F)cc4)c3=N)Oc3ccc4ccccc4c32)c1 (configuration not stated),"inconclusive: 56.2 µM [inhibitor, partial curve]",
Cc1ccc(S(=O)(=O)NCc2n[nH]c(=S)n2C)cc1,active: 7.94 µM,
CCc1cccc(NC(=O)Cc2cn(C)c3ccccc23)c1,"inconclusive: 22.4 µM [inhibitor, full curve, poor fit]",
Cc1ccc2c(c1)/C(=C/c1ccccc1C)C(=O)N2,"inconclusive: 11.2 µM [inhibitor, full curve, poor fit]",
O=c1[nH]c(/C=C/c2ccccc2)c([N+](=O)[O-])c(=O)[nH]1,inactive,
COc1cc(NC(=O)c2ccc(C)cc2)ccc1NC(=O)c1cc2ccccc2o1,"inconclusive: 79.4 µM [inhibitor, single point] and inconclusive: 35.5 µM [inhibitor, full curve, poor fit]",
Cc1ccc(S(=O)(=O)c2nc(-c3ccccc3)oc2NCc2cccnc2)cc1,"inconclusive: 50.1 µM [inhibitor, partial curve]",
CC1(c2ccc(Cl)c(Cl)c2)NC(=S)N2C1NC(=S)N2c1ccccc1 (configuration not stated),"inconclusive: 56.2 µM [inhibitor, partial curve]",

Compound,Potency,"activity change, negative = inhibition"
COc1ccc(C(=O)/C=C/c2ccc(OC3CSC3)cc2)cc1OC,"inconclusive: 50.1 µM [inhibitor, partial curve]",
COc1cc(C2Oc3ccccc3C=C2[N+](=O)[O-])cc(OC)c1OC (configuration not stated),active: 56.2 µM,
c1ccc(COc2ccc(OCCCN3CCCCC3)cc2)cc1,active: 39.8 µM,
CN1C(C(=O)c2ccccc2)=C(OC(=O)c2ccc(Br)cc2)c2ccccc2S1(=O)=O,inactive,
Nc1ccc(-c2cc(N)n(-c3ccccc3)n2)cc1,"inconclusive: 79.4 µM [inhibitor, partial curve, poor fit]",
c1cc(CN2CCN(C3CCCCCC3)CC2)ccn1,active: 20 µM,
COc1ccccc1NC(=O)c1c(NCc2ccc(OC)c(OC)c2OC)sc2c1CCCC2,"inconclusive: 44.7 µM [inhibitor, partial curve]",
COc1ccccc1OCC(=O)Nc1cc(C)ccc1NC(=O)c1ccco1,"inconclusive: 89.1 µM [inhibitor, single point]",
CC1CCC2(CC1)NC(=O)N(CC(=O)Nc1sc3c(c1C(N)=O)CCC3)C2=O (configuration not stated),"inconclusive: 39.8 µM [inhibitor, partial curve]",
CCCn1c(SCC(=O)Nc2nnc(-c3ccccc3)s2)nnc1-c1ccccn1,"inconclusive: 89.1 µM [inhibitor, single point]",
CCCOC1(C(F)(F)F)NC(=O)N(c2ccc(Cl)cc2)C1=O (configuration not stated),inactive,
C/C(=N\NC(=O)CNc1ccc(F)cc1)c1cc2ccccc2o1,"inconclusive: 63.1 µM [inhibitor, partial curve, poor fit]",
Cc1nc(C)c(-c2csc(Nc3ncccc3C)n2)s1,inactive,
O=C(CN1C2=NCCCN2c2ccccc21)c1cccc(Br)c1,"inconclusive: 39.8 µM [inhibitor, single point]",
Cc1nc2c(C(=O)NCc3ccccc3)c[nH]n2c(=O)c1Cc1ccccc1Cl,inactive,
N=c1c2ccccc2nnn1-c1ccc(C(F)(F)F)cc1,inactive,
COc1cccc(/C=C2\N=C(c3c(-c4ccccc4)noc3C)OC2=O)c1,"inconclusive: 89.1 µM [inhibitor, single point]",
CC(NS(=O)(=O)c1ccc(Cl)cc1)C(=O)OCC(=O)Nc1ccc(N(C)C)cc1 (configuration not stated),"inconclusive: 39.8 µM [inhibitor, partial curve]",
COc1cc(OC)c(OC)cc1/C=N/NC(=O)C[n+]1ccccc1,inactive,
Cc1ccsc1C(=O)C1CCCN(Cc2cccn2-c2ccc(Cl)cn2)C1 (configuration not stated),"inconclusive: 50.1 µM [inhibitor, partial curve]",
C=CCn1c(-c2cccc(Cl)c2)n[nH]c1=S,active: 10 µM,
COc1cccc(C(=O)Nc2ccc(N3CCCC3)cc2)c1,"inconclusive: 31.6 µM [inhibitor, partial curve]",
CCn1c(C(O)c2ccc3c(c2)OCO3)nc2ccccc21 (configuration not stated),inactive,
Cc1ccc(CNC(=O)c2ccc(Cn3nc(C)c(Cl)c3C)o2)cc1,"inconclusive: 79.4 µM [inhibitor, partial curve]",

Compound,Potency,"activity change, negative = inhibition"
Cc1ccc([N+](=O)[O-])c2c1C(N1CC(C)OC(C)C1)C(C)(C)O2 (configuration not stated),inactive,
CC1CCN(c2cc(N3CCC(C)CC3)c([N+](=O)[O-])cc2/C=C(\C#N)c2nn(-c3ccccc3)c(N)c2C#N)CC1,inactive,
COc1cccc(/C=C2\Oc3ccc(O)cc3C2=O)c1O,inactive,
Cc1nc2c(C(=O)NCCC3=CCCCC3)c[nH]n2c(=O)c1Cl,inactive,
CCOC(=O)c1c(S(=O)(=O)N2CCCC(C(=O)Nc3cccc(Cl)c3)C2)c(C)n(C)c1C (configuration not stated),inactive,
O=S(=O)(Nc1nc2ccccc2nc1Nc1ccc2c(c1)OCCO2)c1cccs1,"inconclusive: 79.4 µM [inhibitor, partial curve]",
CC1(C)CC(N2CCN(Cc3ccccc3)CC2)=CC(=[N+]2CCCCC2)C1,active: 17.8 µM,
CCOC(=O)C1=C(C)NC(C)=C(C(=O)OCCNC(=O)c2cccnc2)C1c1cccc([N+](=O)[O-])c1 (configuration not stated),"inconclusive: 31.6 µM [inhibitor, single point]",
C=CCn1nnnc1SCC(=O)Nc1cccc(C(F)(F)F)c1,"inconclusive: 28.2 µM [inhibitor, single point]",
C/C(=N/NC(=O)c1ccc(Br)o1)c1cccc(NC(=O)c2ccc(C)o2)c1,active: 50.1 µM,
O=C(Nc1ccccc1N1CCCC1)C1CCN(S(=O)(=O)c2ccccc2)CC1,,inconclusive: -40% [inhibitor]
O=c1c(-c2ccco2)[n+]([O-])c2ccccc2n1OCc1c(F)cccc1F,inactive,
CC(C)C(=O)N[C@@H]1c2ccccc2CC[C@H]1OCc1ccccc1,inactive,
Cc1cc(=O)n2nc(N3CCCC(C(=O)NCCCN4CCc5ccccc5C4)C3)sc2n1 (configuration not stated),"inconclusive: 31.6 µM [inhibitor, partial curve]",
COc1ccc(N(C)C(=O)c2cn(C3CCCCC3)c(=O)c3c2c2ccccc2n3C)cc1,"inconclusive: 15.8 µM [inhibitor, full curve]",
CC(C)C[C@@H](CNCC(=O)[C@H](Cc1ccccc1)NC(=O)c1[nH]cnc1C(=O)N[C@@H](C)CN)NC(=O)c1nc[nH]c1C(=O)N[C@@H](C)C(=O)O,active: 79.4 µM,
O=C(C(=O)N1CCOCC1)c1c[nH]c2ccccc12,inactive,
COc1ccc(NC(=O)COc2ccc(-c3nn(C)c(=O)c4ccccc34)cc2)cc1,active: 44.7 µM,
Cc1nn(-c2ccccc2)c2c1C1(C(=O)N3c4c(cccc41)C(C)CC3(C)C)C(C#N)=C(N)O2 (configuration not stated),"inconclusive: 44.7 µM [inhibitor, partial curve]",
O=C(NC1CCCC1)c1cnn2c(C(F)(F)F)cc(-c3ccc4c(c3)OCO4)nc12,"inconclusive: 35.5 µM [inhibitor, partial curve]",
CC(=O)Nc1ccc(CN2CCN(C3CCCC3)C(CCO)C2)cc1 (configuration not stated),inactive,
CCOc1ccc(C(=O)N2CCC(c3nc4ccccc4o3)CC2)cc1,inactive,
Cc1c(C)c2ccc(OCc3ccc(C(=O)O)o3)c(C)c2oc1=O,"inconclusive: 100 µM [inhibitor, single point]",
COc1ccccc1-c1nnc(SCC(=O)c2ccc(Cl)cc2)n1-c1ccccc1,inactive,
